# Measurements from PubChem BioAssay AID761 (NMMLSC, 2007).
# In all, about 190,000 compounds went through this assay and about 400 (0.21%) were called active. The inconclusive results got no clear call from the source; some entries with a clear call stand among them for comparison.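 How the source made its calls: active means percent activity GTP binding at least 20 points away from the 100% baseline, either down as inhibitor or up as activator; inconclusive means compound flagged as likely green fluorescent from well-wide comparison; inactive means the rest.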
# Biological target: Cell division control protein 42 homolog (Homo sapiens) (UniProt P60953)
# Test: wildtype Cdc42 fluorescent GTP binding changes, either direction – biochemical, multiplex bead flow cytometry, Bodipy-GTP, primary screen (AID 761);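 further: median bead fluorescence of bound Bodipy-FL-GTP at 100 nM; 0% = excess unlabeled GTP control and 100% = no compound control; below 100% means less GTP binding so inhibitor and above means activator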
# Conditions: GST-Cdc42 beads, at 10 µM, actives lie on both sides
# UniProt P60953, sequence (P60953 whole entry, looked up): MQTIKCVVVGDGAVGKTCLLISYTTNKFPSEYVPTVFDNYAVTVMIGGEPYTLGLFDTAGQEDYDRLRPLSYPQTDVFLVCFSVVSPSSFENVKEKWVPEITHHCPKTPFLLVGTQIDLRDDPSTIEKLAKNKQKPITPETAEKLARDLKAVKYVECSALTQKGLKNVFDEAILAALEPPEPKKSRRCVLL
row,Compound,percent activity (GTP binding)
1,NC(=O)c1cccnc1Oc1cccc(Cl)c1,inconclusive: 106%
2,CC(NC(=O)/C(C#N)=C1\N=C(NC(=O)c2cccs2)c2ccccc21)c1ccccc1 (stereo not drawn),inconclusive: 98%
3,Cc1cc(NC(=O)CN2CCc3ccccc3C2)nc2c1c(=O)oc1ccccc12,inactive: 94%
4,COc1ccc(C(O)(c2ccccc2OC)C(CN2CCOCC2)c2ccccc2)cc1 (stereo not drawn),inactive: 94%
5,COc1cccc(NC(=O)NCCCN2CCN(c3ccc(F)cc3)CC2)c1,inactive: 100%
6,CS(=O)(=O)N1CCc2cc(C(=O)OCC(=O)c3ccccc3)ccc21,inactive: 99%
7,COc1ccc(-n2c(SCC(=O)N3CCCC(C)C3)nnc2-c2cccnc2)cc1 (stereo not drawn),inconclusive: 97%
8,CCCCN(Cc1ccccc1)C(=O)C1CCCN(S(=O)(=O)c2cnc[nH]2)C1 (stereo not drawn),inactive: 101%
9,Cc1ccc(NC(=O)c2ccccc2)cc1,inconclusive: 105%
10,CCN(Cc1ccccc1)c1ccc(/C=N/NS(=O)(=O)c2cccc([N+](=O)[O-])c2)cc1,inactive: 101%
11,CCCCc1ccc(NC2=NCC(=O)N2CCc2ccccc2)cc1,inactive: 99%
12,CNC(=O)c1cc2ccccc2o1,inconclusive: 101%
13,CCC(C)(NC(=O)c1ccccn1)C(=O)NC1CCCC1 (stereo not drawn),inactive: 95%
14,O=C(NNC(=O)C1CCN(c2ncccn2)CC1)c1ccccc1,inconclusive: 96%
15,Cc1ccc(CNC(=O)c2ccc3nc4[nH]c5ccccc5c4nc3c2)cc1,inconclusive: 95%
16,CC(C)NC(=O)COc1ccc(/C=N/NS(=O)(=O)c2ccccc2)cc1,inconclusive: 95%
17,CC(NC(=S)Nc1ccccc1Cl)C(c1cccs1)N1CCCC1 (stereo not drawn),inactive: 100%
18,O=C(CCn1c(=O)oc2ccccc21)N(Cc1ccccc1)c1ccccc1,inactive: 96%
19,Clc1ccc(/C=N/Nc2nc(Cl)nc3ccccc23)cc1,inconclusive: 95%
20,Cc1ccc(CNC(=O)C2CCN(S(=O)(=O)c3c(C)noc3C)CC2)cc1,inconclusive: 106%
21,Cc1cc(=O)n2c3ccccc3n(CC(O)CN3CCCC3)c2c1C#N (stereo not drawn),inconclusive: 104%
22,c1ccc(N2CCN(c3cnccn3)CC2)nc1,inconclusive: 105%
23,O=C1CC(c2ccccc2)Sc2ccccc2N1 (stereo not drawn),inconclusive: 105%
24,COc1ccc(/C=N/Nc2nc(-c3cccc(S(=O)(=O)N4CCCC4)c3)cs2)cc1OC,inconclusive: 93%

row,Compound,percent activity (GTP binding)
1,Cc1ccc(NCC(=O)N/N=C/c2c[nH]c3ccccc23)cc1,inconclusive: 95%
2,CCOC(=O)Cn1c(=O)c2c(nc3n2CCN3Cc2ccccc2)n(C)c1=O,inactive: 99%
3,COc1ccc(CC2(CO)CCN(S(=O)(=O)c3sccc3C)CC2)cc1,active: 63%
4,NS(=O)(=O)c1ccc(N/C=C\C(=O)c2cccc3ccccc23)cc1,inconclusive: 95%
5,CC(C)(C)NC(=O)CSc1nccn1Cc1ccccc1,active: 77%
6,Cc1nc(N/N=C/c2ccc(O)cc2)c2cnn(-c3ccccc3)c2n1,inconclusive: 76%
7,CCCCCn1c(NC(=O)c2ccco2)c(S(=O)(=O)c2ccc(C)cc2)c2nc3ccccc3nc21,inconclusive: 87%
8,O=C(Nc1nc(-c2cccs2)cs1)c1ccco1,inconclusive: 91%
9,CCCSc1nc2c3c(sc2c(=O)[nH]1)CC(C)(CC)OC3 (stereo not drawn),inactive: 95%
10,CC(C)N(C(=O)Cn1cnc2cc([N+](=O)[O-])ccc2c1=O)C(C)C,inconclusive: 77%
11,COc1ccc2[nH]c3nc(SCC(=O)Nc4ccc5c(c4)OCO5)nnc3c2c1,active: 74%
12,Cc1ccc(CN2C(=O)CCC2C(=O)NCc2ccccc2Cl)cc1 (stereo not drawn),inconclusive: 101%
13,Cc1ccccc1NC(=O)CSc1ccsc1[N+](=O)[O-],inactive: 98%
14,CCOC(=O)c1ccc(NC(=O)c2c(NC(=O)CCC(=O)O)sc3c2CCCCC3)cc1,inactive: 89%
15,CCCCCCC(=O)NN1CCN(C)CC1,inconclusive: 105%
16,COc1ccc(OC)c(NC2=NC3(CCCC3)N=C(N)N2)c1,inconclusive: 89%
17,CC(=O)c1c(C)[nH]c(C(=O)OCC(=O)Nc2ccccc2Cl)c1C,inconclusive: 95%
18,O=S1(=O)N=C(N(CCO)/N=C/c2ccccc2)c2ccccc21,active: 71%
19,CC1=C(C(=O)OC(C)C)C(c2ccccc2)NC(=S)N1C (stereo not drawn),inactive: 102%
20,Cc1nnc(NC(=O)CSc2ccc3nnc(-c4ccccn4)n3n2)s1,inactive: 92%
21,COC(=O)c1ccc(N=Cc2c(C(F)(F)F)[nH][nH]c2=O)cc1,inactive: 100%
22,Cc1ccc(CCN=c2c([N+](=O)[O-])nn(-c3ccccc3)n2O)cc1,inconclusive: 89%
23,O=C(COc1ccccc1)Nc1ccc(-c2nnc(-c3ccco3)o2)cc1,inconclusive: 94%
24,CN(CC(=O)Nc1ccccc1Cl)CC(=O)Nc1ccccc1[N+](=O)[O-],inactive: 95%

row,Compound,percent activity (GTP binding)
1,COc1ccc(N2CCN(CC(=O)Nc3cccc(S(=O)(=O)N4CCOCC4)c3)CC2)cc1,inconclusive: 99%
2,COc1ccc(S(=O)(=O)CC(O)CN2CCCC2=O)cc1 (stereo not drawn),inconclusive: 108%
3,CN(c1ccccc1)c1ccc(/C=c2\s/c(=C(/C#N)C(=O)C(C)(C)C)n(Cc3ccco3)c2=O)cc1,active: 143% [activator]
4,COc1ccc([N+](=O)[O-])cc1N(CC(O)CN1CCCCC1)S(=O)(=O)c1ccc(C)cc1 (stereo not drawn),inactive: 99%
5,COc1ccc2cc3cc(C(=O)NCCc4ccc(OC)c(OC)c4)oc3nc2c1,inconclusive: 93%
6,COC(=O)c1ccc(/C=N/Nc2nc(-c3ccc(Cl)cc3Cl)cs2)cc1,active: 127% [activator]
7,Cc1nn(C)c2nc(-c3cccs3)cc(C(F)(F)F)c12,inconclusive: 92%
8,Fc1ccc(COc2ccc(/C=N/n3cnnc3)cc2)cc1,inconclusive: 107%
9,CCn1c(SCC(=O)NC2CCCc3ccccc32)nnc1-c1cccs1 (stereo not drawn),inconclusive: 105%
10,Cn1c(-c2ccc(F)cc2)cnc1NCc1ccc(F)cc1,inconclusive: 110%
11,CCC(C)OC(=O)C1=C(C)OC23OC(N)=C(C#N)C12C(=O)c1ccccc13 (stereo not drawn),inactive: 102%
12,O=C(NCCN1CCN(C(=O)c2cc3ccccc3oc2=O)CC1)c1cc2ccccc2oc1=O,inconclusive: 108%
13,CCCC(=O)N1CCN(c2ccc(NC(=S)NC(=O)c3cccc(C)c3)cc2)CC1,inconclusive: 97%
14,CC(C)N=C(NS(=O)(=O)c1ccccc1)C(Cl)(Cl)Cl,inactive: 101%
15,COc1cccc(CN(C)CC(=O)Nc2sc3c(c2C#N)CCC3)c1OC,inconclusive: 91%
16,CCC(C)C(=O)Nc1ccc(OC)cc1OC (stereo not drawn),inconclusive: 177%
17,COC(=O)c1cn(NC(=O)c2ccccc2[N+](=O)[O-])c(=O)c2ccccc12,inactive: 94%
18,CC1=NC(=O)C(N=Nc2ccccc2C(=O)O)N1c1ccccc1 (stereo not drawn),inactive: 80%
19,O=C(NCCOc1ccc(Cl)cc1)C1CC(=O)N(c2ccc(F)cc2)C1 (stereo not drawn),inconclusive: 106%
20,CCCC(=O)Nc1ccc(N2CCN(S(C)(=O)=O)CC2)cc1,inactive: 100%
21,Cc1ccc(CN2CC(C(=O)Nc3ccc4c(C)cc(=O)oc4c3)CC2=O)cc1 (stereo not drawn),inconclusive: 93%
22,O=C(CCNS(=O)(=O)c1ccc(Cl)cc1)NCc1ccccn1,inconclusive: 106%
23,Cc1ccc2nc(SCc3ccc([N+](=O)[O-])cc3)[nH]c2c1,inconclusive: 96%
24,Cc1cc(NCCc2ccccc2F)n2ncnc2n1,inconclusive: 96%

row,Compound,percent activity (GTP binding)
1,COc1ccc(Cc2nnc(N/N=C/c3ccc(O)cc3O)[nH]c2=O)cc1OC,inconclusive: 91%
2,CN1CCN(C(=O)C23CC4CC(C2)CC(c2ccccc2)(C4)C3)CC1,inactive: 98%
3,COc1cccc(-c2nc(CS(=O)CC(=O)NCCCOC(C)C)c(C)o2)c1 (stereo not drawn),inconclusive: 102%
4,CC1CCN(Cc2c(C(=O)O)nnn2-c2nonc2N)CC1,inactive: 97%
5,Cc1ccc(Nc2nnc(SC/C(O)=C(\C#N)c3nc4ccccc4[nH]3)s2)c(C)c1,inconclusive: 98%
6,O=C(N/N=C/c1ccc[nH]1)c1ccccc1OCc1ccccc1Cl,inconclusive: 84%
7,CCOC(=O)c1cnc(SCC(=O)OC)nc1N,inconclusive: 103%
8,O=C(Nc1ncc(Cc2cccc(C(F)(F)F)c2)s1)c1ccc(-c2cccc([N+](=O)[O-])c2)o1,inactive: 98%
9,O=C(O)/C=C/c1cn(-c2ccccc2)nc1-c1cccs1,inactive: 93%
10,COc1cc(C)c(CNc2cccc(C)c2)cc1C,inconclusive: 104%
11,COc1ccc(OCCN2C(=O)c3ccccc3C2=O)cc1,inactive: 111%
12,O=C(Nc1nc2ccccc2[nH]1)c1cc2ccccc2o1,inconclusive: 88%
13,O=C(CNC(=O)c1cccs1)NCC(=O)OCc1ccc(Cl)cc1Cl,inconclusive: 104%
14,N=c1c2c(-c3ccccc3)c(-c3ccccc3)n(Cc3ccco3)c2ncn1Cc1ccco1,inconclusive: 105%
15,O=C(c1ccccc1)c1nnc(-c2ccncc2)o1,inconclusive: 111%
16,NC(=O)Cn1c(=O)n(CCC(=O)NCCSCc2ccccc2)c(=O)c2ccccc21,inactive: 103%
17,O=C(O)C1CC(=O)N(c2ccc(OCc3ccc(Cl)cc3Cl)cc2)C1 (stereo not drawn),inconclusive: 91%
18,COCc1cc(Sc2ccc(Cl)cc2)nc(-c2ccccc2)n1,inconclusive: 95%
19,Clc1ccc(SCCOCCN2CCCCC2)cc1,inconclusive: 104%
20,Cc1cc(Oc2ccc(=O)n(C)n2)nc(=S)[nH]1,inconclusive: 94%
21,COc1cc(OC)c(-c2c3cc(O)c(=O)cc-3oc3cc(O)c(O)cc23)cc1OC,inconclusive: 184%
